± gives the standard deviation of the averaged measurements. In all, about 33,000 sequences were measured (“E-score (dimensionless, -0.5 to 0.5)”: median about -0.046, highest 2% from about 0.36 on). The list shows a part of the results.
The sequences below were run on T1, SpTbr T-box DNA-binding domain (GST fusion) (assay: PBM E-score of 8-mer (E-score (dimensionless, -0.5 to 0.5)); Tbr is Tbrain of the sea star Patiria miniata (Pm) or the sea urchin Strongylocentrotus purpuratus (Sp); higher = stronger binding preference; most listed sequences are background and not binding sites). Conditions: the construct has about 5 more residues each side.
T1 sequence: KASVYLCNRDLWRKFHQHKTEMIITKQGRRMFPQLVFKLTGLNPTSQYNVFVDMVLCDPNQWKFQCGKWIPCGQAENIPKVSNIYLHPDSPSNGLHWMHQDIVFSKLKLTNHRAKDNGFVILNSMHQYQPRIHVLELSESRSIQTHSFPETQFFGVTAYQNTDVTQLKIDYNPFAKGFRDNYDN
Experimental: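 Universal protein-binding microarray (Agilent AMADID 016060, 60-bp probes with a 35-bp variable region) incubated with 200 nM GST-fused Strongylocentrotus purpuratus Tbr T-box DNA-binding domain (residues 362-554) in PBS pH 7.5. Scored for every ungapped 8-mer (given with its reverse complement) as E-score (range -0.5 to 0.5; >0.45 counts as bound) and Z-score of median probe intensity. Two replicate arrays (datasets 1 and 2).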
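Note: protein at 200 nM in PBS on universal double-stranded arrays.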

| Sequence | PBM E-score of 8-mer |
| --- | --- |
| AGACTACC | -0.154 ± 0.059 |
| ATCAAACC | -0.137 ± 0.011 |
| GCATAGCC | -0.241 ± 0.055 |
| AACGAGTA | 0.031 ± 0.015 |
| CGTGGATA | 0.0438 ± 0.075 |
| ATCCAGTC | -0.36 ± 0.015 |
| AAGCGGTC | 0.11 ± 0.018 |
| ACGTTCAG | -0.122 ± 0.029 |
| GCGGTACA | -0.0858 ± 0.04 |
| AGCACACT | 0.28 ± 0.034 |
| ATCAGATC | -0.0884 ± 0.036 |
| CAATTGTA | 0.00751 ± 0.072 |
| ACAACCCC | 0.115 ± 0.0058 |
| GATGGTAC | -0.12 ± 0.032 |
| CCTTAGCC | 0.0413 ± 0.016 |
| TCTAAAGA | -0.229 ± 0.019 |
| AACCTTAT | -0.137 ± 0.027 |
| ACTCCGGA | -0.0213 ± 0.013 |
| CCAGTCAA | 0.0495 ± 0.0022 |
| AACGGATA | -0.00801 ± 0.023 |
| ACGGGCAC | -0.0683 ± 0.048 |
| CGCGAGGC | 0.339 ± 0.032 |

| Sequence | PBM E-score of 8-mer |
| --- | --- |
| AATAGATC | -0.185 ± 0.063 |
| ATGCGAAT | 0.129 ± 0.048 |
| AATAATGA | -0.102 ± 0.0057 |
| GAAAATGA | -0.0154 ± 0.014 |
| AGACCAAG | 0.0098 ± 0.00058 |
| GAATGCAA | -0.152 ± 0.016 |
| ACCGGTAC | -0.1754 ± 0.0017 |
| CGATAAGC | 0.108 ± 0.074 |
| TGGAGGAA | -0.056 ± 0.022 |
| AGATAGGG | -0.0962 ± 0.062 |
| CTGCCAAA | 0.0249 ± 0.15 |
| CGATTCTA | -0.108 ± 0.062 |
| AAAAGTCC | -0.2028 ± 0.0019 |
| AGTCCACT | -0.0663 ± 0.0069 |
| AAGAAGGT | -0.00399 ± 0.0071 |
| CTACCGCC | -0.122 ± 0.028 |
| AAGTCATC | -0.145 ± 0.029 |
| AGAAGGCC | -0.0423 ± 0.037 |
| AAGAACGG | -0.11 ± 0.038 |
| ATTGCAAG | -0.00583 ± 0.0034 |
| AGATCACA | 0.342 ± 0.02 |
| AAGGCTAT | -0.146 ± 0.024 |

| Sequence | PBM E-score of 8-mer |
| --- | --- |
| AGGCAGAA | -0.135 ± 0.014 |
| CCCGAAAG | -0.0424 ± 0.00067 |
| CATGTGGC | 0.0468 ± 0.12 |
| AGAGATCC | -0.0897 ± 0.0046 |
| CTAGCCGC | 0.0427 ± 0.047 |
| CCACTTAC | 0.161 ± 0.0085 |
| GGCGCGCC | 0.237 ± 0.032 |
| ACTACAAT | 0.0271 ± 0.027 |
| ATTTCCCA | 0.0156 ± 0.022 |
| ATAACACG | 0.303 ± 0.033 |
| AGGCATCC | -0.354 ± 0.04 |
| GGAAGTTA | -0.0319 ± 0.0054 |
| AATCAAAC | 0.0427 ± 0.047 |
| GGTTCATA | -0.0395 ± 0.039 |
| CCCCCCGG | -0.235 ± 0.0081 |
| CGATCTAC | -0.0987 ± 0.0049 |
| GTTGCTAA | 0.223 ± 0.048 |
| CTGTGAAG | 0.296 ± 0.027 |
| CCCTGTGA | 0.052 ± 0.031 |
| CGAACAGC | 0.0761 ± 0.05 |
| CCTGTTAC | 0.177 ± 0.0078 |
| ACCTGATA | 0.0567 ± 0.051 |

| Sequence | PBM E-score of 8-mer |
| --- | --- |
| CCCGTTCA | 0.0431 ± 0.035 |
| CCAACAGG | 0.0658 ± 0.0022 |
| CTATATAC | 0.0352 ± 0.036 |
| AAAGGGGG | -0.2361 ± 0.0016 |
| TTGACAAA | 0.288 ± 0.067 |
| ACAATCGT | 0.12 ± 0.013 |
| GGTACTAA | -0.072 ± 0.0098 |
| GTGGCTAA | 0.033 ± 0.025 |
| ACGATCCC | 0.0353 ± 0.042 |
| CCAAGCGG | -0.256 ± 0.035 |
| AGAGCAAG | -0.123 ± 0.067 |
| ACACGAGT | 0.0737 ± 0.029 |
| CGTCCATA | 0.0256 ± 0.013 |
| GCGGTATA | -0.177 ± 0.057 |
| GGCCACCA | -0.0858 ± 0.015 |
| CGGAATTA | -0.216 ± 0.0064 |
| CTTATCAC | 0.322 ± 0.033 |
| GGATGCGA | 0.108 ± 0.094 |
| AGGAAACT | -0.0834 ± 0.015 |
| ACCCTATA | -0.177 ± 0.11 |
